In publication PMC4604155:
These are yes or no findings as the source states them, for the method shown. For some assays here: In cells and extracts the contact can be indirect. Some entries that bind do so weakly or less than the wild type. For some assays here: Sequences can lack the tags named with a protein.

Chains of the proteins cited; added tags and fusions are not shown.
UniProt P08670: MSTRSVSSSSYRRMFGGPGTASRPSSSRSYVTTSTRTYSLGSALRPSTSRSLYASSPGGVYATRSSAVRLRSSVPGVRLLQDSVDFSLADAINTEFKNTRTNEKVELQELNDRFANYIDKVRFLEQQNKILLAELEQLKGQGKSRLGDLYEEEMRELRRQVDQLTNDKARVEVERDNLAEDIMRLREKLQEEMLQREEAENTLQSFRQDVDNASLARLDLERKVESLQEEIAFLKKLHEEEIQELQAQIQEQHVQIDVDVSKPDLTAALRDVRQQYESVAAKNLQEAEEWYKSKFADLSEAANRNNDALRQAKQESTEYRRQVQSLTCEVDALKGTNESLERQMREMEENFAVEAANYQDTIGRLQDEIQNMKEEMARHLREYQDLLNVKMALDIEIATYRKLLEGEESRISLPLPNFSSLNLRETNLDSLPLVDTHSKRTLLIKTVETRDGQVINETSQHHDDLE
UniProt P15331: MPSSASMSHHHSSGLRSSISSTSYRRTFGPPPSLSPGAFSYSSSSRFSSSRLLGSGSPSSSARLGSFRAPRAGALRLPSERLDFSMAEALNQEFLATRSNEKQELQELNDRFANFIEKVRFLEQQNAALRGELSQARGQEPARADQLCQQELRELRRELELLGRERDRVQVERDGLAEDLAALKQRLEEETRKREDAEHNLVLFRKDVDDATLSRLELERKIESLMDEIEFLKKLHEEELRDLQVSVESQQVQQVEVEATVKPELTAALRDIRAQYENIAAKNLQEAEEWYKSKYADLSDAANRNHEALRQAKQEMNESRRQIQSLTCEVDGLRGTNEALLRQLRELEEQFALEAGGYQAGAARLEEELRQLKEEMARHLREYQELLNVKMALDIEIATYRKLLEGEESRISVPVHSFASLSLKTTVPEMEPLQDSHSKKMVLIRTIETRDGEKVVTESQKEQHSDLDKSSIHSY

Experiments:
[1] = molecular target: T1, FLAG-tagged full-length gigaxonin (GIG) (UniProt Q9H2C0); experiment: co-IP; lysates of HEK293 cells transfected with FLAG-GIG or FLAG-BTB, immunoprecipitated with anti-Flag beads or IgG; blot probed for VIM or PRPH
T1 sequence: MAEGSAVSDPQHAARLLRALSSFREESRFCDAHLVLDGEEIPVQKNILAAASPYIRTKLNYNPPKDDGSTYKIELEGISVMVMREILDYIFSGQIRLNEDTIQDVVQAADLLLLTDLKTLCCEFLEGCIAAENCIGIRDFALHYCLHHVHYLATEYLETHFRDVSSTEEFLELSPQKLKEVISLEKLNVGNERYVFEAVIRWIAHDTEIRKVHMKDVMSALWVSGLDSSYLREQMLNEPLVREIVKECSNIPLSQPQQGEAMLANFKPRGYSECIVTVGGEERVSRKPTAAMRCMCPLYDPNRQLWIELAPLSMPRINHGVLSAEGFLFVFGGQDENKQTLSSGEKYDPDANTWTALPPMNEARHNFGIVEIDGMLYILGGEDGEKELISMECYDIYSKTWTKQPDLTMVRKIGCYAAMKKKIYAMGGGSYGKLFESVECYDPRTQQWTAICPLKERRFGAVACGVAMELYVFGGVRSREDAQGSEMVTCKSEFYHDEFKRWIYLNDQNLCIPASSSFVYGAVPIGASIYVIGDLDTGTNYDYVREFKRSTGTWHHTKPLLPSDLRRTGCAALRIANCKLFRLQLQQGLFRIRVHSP

[2] = molecular target: T2, truncated gigaxonin lacking the Kelch domain ("BTB" domain bait) (UniProt Q9H2C0); experiment: as above
T2 sequence: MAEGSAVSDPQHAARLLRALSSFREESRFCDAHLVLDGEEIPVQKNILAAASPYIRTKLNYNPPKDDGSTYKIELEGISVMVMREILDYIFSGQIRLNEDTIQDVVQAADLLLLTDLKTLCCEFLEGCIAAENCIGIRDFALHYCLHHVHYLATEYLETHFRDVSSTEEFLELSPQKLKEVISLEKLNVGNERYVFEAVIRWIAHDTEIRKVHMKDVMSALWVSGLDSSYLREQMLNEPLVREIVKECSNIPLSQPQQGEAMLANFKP

[3] = molecular target: T2, truncated gigaxonin lacking the Kelch domain ("BTB" domain bait); experiment: band of dimer size on gel after FLAG immunoprecipitation (anti-Flag Western blot, silver stain); Flag-tagged BTB expressed in HEK293 cells, affinity purified with anti-Flag antibody; band at ~70 kDa beside the ~34 kDa BTB band
[4] = molecular target: vimentin (VIM) (human (endogenous in HEK293)) (UniProt P08670); experiment: co-IP; endogenous VIM immunoprecipitated from HEK293 lysate with mouse anti-VIM antibody or control IgG; blot probed for endogenous GIG

In the case of “mouse peripherin (PRPH), overexpressed (from UniProt P15331 1-475)”, the binding [1] is reported as “binds”.

With “vimentin (VIM) (from UniProt P08670 1-466)” the binding [1] was “binds” and the binding [2] was “no binding”.

B1: truncated gigaxonin lacking the Kelch domain ("BTB" domain bait) (domain or fragment, UniProt Q9H2C0 1-268)
chain: T2 sequence
B1 was tested, and the binding [3] was “binds”.

B2: endogenous gigaxonin (GIG) (protein, UniProt Q9H2C0 1-597)
chain: T1 sequence
For B2, the binding [4] was “binds”.
